# Reference: ChEMBL document CHEMBL1157539, “Thousands of chemical starting points for antimalarial lead identification” (Nature, 2010)
# Whole data set: some 13,000 compounds, median “IFI” near 4, cut for the highest 2% near 17. Some of the results follow.
# Test: GSK_TCMDC: Inhibition Frequency Index (IFI). The number of non-kinase HTS assays where a compound showed > 50 % inhibition, expressed as a percentage of the number of such assays in which the compound was tested (-0 is zero)
# Type: functional
row,SMILES,IFI
1,CC1=C(C(=O)Nc2ccc(Cl)cc2)C(c2ccncc2)n2nc(C(F)(F)F)nc2N1 (configuration not stated),-0%
2,Clc1ccc2c(NCc3ccc4c(c3)OCO4)ccnc2c1,4.41%
3,NC1CCN(c2nc(NCCc3ccc(O)cc3)nc(NCc3ccccc3-c3ccc(C(F)(F)F)cc3)n2)CC1,7.58%
4,CC(C)[C@H](NCC(=O)c1ccccc1)C(=O)O,1.44%
5,CN1CCN(c2nc(NCCc3ccc(O)cc3)nc(NCc3ccccc3-c3ccc(C(F)(F)F)cc3)n2)CC1,11.8%
6,CCOC(=O)c1cn(CC)c2cc(N3CCCCCC3)c(F)cc2c1=O,2.21%
7,COc1cc(Br)ccc1N1CCN(CCCCNC(=O)c2ccc(NC(=O)c3ccc(Cl)cc3)cc2)CC1,6.14%
8,N=C1NC(c2ccccc2)(c2ccccc2)C(=O)N1CC=Cc1ccccc1,10.7%
9,O=C(/C=C/c1ccccc1)N1CCOC(CCN2CCC(c3ccccc3)CC2)(c2ccc(Cl)c(Cl)c2)C1 (configuration not stated),7.59%
10,CCCNC(=O)Nc1cc2cc(-c3cccc(CN4CCCCC4)c3)ccc2n2c(C)nnc12,13.2%
11,CCCNCc1ccc(-c2ccc(CN(CCOC)C(=O)CCC(=O)c3ccc(OC)c(F)c3)cc2)nc1,0.7%
12,COc1ccc(CNC2CCN(c3ccc(NC(=O)c4cccc(Cl)c4)cc3)CC2)cc1OC,7.69%
13,O=C(NCCN1CCCC1)c1cccc(-c2ccc(-c3nc4ccccc4[nH]3)s2)c1,2.7%
14,Cc1onc(-c2ccccc2)c1-c1nc(NCCC(c2ccccc2)c2ccccc2)no1,-0%
15,c1ccc(Oc2ccc(Nc3nncc4ccccc34)cc2)cc1,2.16%
16,Cc1cnc(C(=O)Nc2ccc(-c3cccc(-c4nc5ccccc5[nH]4)c3)cc2)cn1,6.14%
17,Cc1cccc(Oc2cccc3[nH]nc(N)c23)c1,1.53%
18,CN1CCCN(Cc2cccc(-c3cccc(NC(=O)c4ccc(C#N)cc4)c3)c2)CC1,0.98%
19,N=c1n(Cc2ccccc2)c2ccccc2n1CC(O)c1ccc(Cl)c(Cl)c1 (configuration not stated),7.86%

row,SMILES,IFI
1,Cc1ccc2c(N/N=C/c3ccccc3[N+](=O)[O-])cc(C)nc2c1,2.96%
2,Cc1cc(N2CCCN(C)CC2)nc(Nc2ccc(Cl)cc2)n1,0%
3,CS(=O)(=O)Nc1ccc2[nH]cc(C3CCN(CC(O)C4CCN(C(=O)/C=C/c5ccc(Cl)c(Cl)c5)CC4)CC3)c2c1 (configuration not stated),-0%
4,Cc1nnsc1C(=O)Nc1cccc(-c2cccc(-c3nc4cccc(C)c4[nH]3)c2)c1,6.36%
5,CCCNCc1ccc(-c2ccc(CN(CCOC)C(=O)c3ccc([N+](=O)[O-])c(C)c3)cc2)nc1,-0%
6,COc1ccc(-c2ccc(Nc3cccc(S(=O)(=O)CCN4CCC(CCN(C)C)CC4)c3)nc2)cn1,9.26%
7,CCCc1cn2c3c(cc(C(=O)N[C@@H](Cc4ccccc4)[C@H](O)CNC4CCCCC4)cc13)N(CC)S(=O)(=O)CC2,3.97%
8,CN1CCCC(CN2CCN(Cc3ccc(-c4ccc(-c5nc6cc(F)ccc6[nH]5)cc4)cc3)CC2)C1 (configuration not stated),7.04%
9,CC(=O)c1c(Cc2cccc(C(F)(F)F)c2)c[nH]c1C,1.68%
10,CCCCCCCCCCNCC(O)c1ccc(O)c(C(=O)OC)c1 (configuration not stated),5.07%
11,CCCCCCCN1CCC(CCNc2ccnc3ccc(OC)cc23)CC1,2.16%
12,O=C(Nc1cccc(CN2CCCN(Cc3ccc(O)cc3)CC2)c1)c1cc(F)cc(F)c1,2.31%
13,CCCNC(=O)C1Cc2c([nH]c3cc(Br)ccc23)C2(CCN(CCc3ccccc3)CC2)N1 (configuration not stated),4.32%
14,COC(=O)c1cccc(NC(=O)NC2CCN(c3ccnc(Nc4ccc(F)cc4)n3)C2)c1 (configuration not stated),6.15%
15,c1cncc(CN2CCCN(c3ccc4c(c3)CCN(Cc3ccc(-c5ncc[nH]5)cc3)CC4)CC2)c1,2.54%
16,CCNc1cc(CCCC(=O)OCC)nc(Nc2ccc(C)cc2)n1,9.09%
17,Cc1ccc(NC(=O)c2cc(Br)cc(N3CCC(N(C)C)CC3)c2)cc1F,4%
18,CO/C(=C/C=C/c1cc2cc(Cl)c(Cl)cc2[nH]1)C(=O)NC1CC(C)(C)N(C)C(C)(C)C1,12%
19,COc1cc2c(cc1C(F)(F)F)N(C(=O)Nc1ccc(Br)cn1)CC2,0.75%

row,SMILES,IFI
1,CCNc1cc(C(=O)N[C@@H](Cc2ccccc2)[C@H](O)CN[C@H](C)C(C)(C)C)cc(N2CCCCS2(=O)=O)c1,0.76%
2,CC(C)c1cc(Oc2c(I)cc(CCNC(=N)N)cc2I)ccc1O,15.3%
3,Cc1nc(-c2ccc(-c3ccc(NC(=O)c4coc5ccc(N6CC(C)N(C)C(C)C6)cc45)cc3)c(C)c2)no1 (configuration not stated),4.08%
4,COc1cc(NCC(CN)Cc2ccc3c(c2)OCO3)nc2ccccc12 (configuration not stated),10.3%
5,O=C(CSc1nc2ccccc2c(=O)n1CC1CCCO1)Nc1cc(C(F)(F)F)ccc1Cl (configuration not stated),3.6%
6,O=C(c1ccc(F)cc1)N1CCOC(CCN2CCC(c3ccccc3)CC2)(c2ccc(Cl)c(Cl)c2)C1 (configuration not stated),5.52%
7,O=C(NCCN1CCCCC1)c1ccc(Nc2nccc(Nc3ccc(Oc4ccccc4)cc3)n2)cc1,5.11%
8,CCc1cccc2sc(N3CCN(C(=O)c4ccc([N+](=O)[O-])o4)CC3)nc12,8.33%
9,CN(C(=O)/C=C/c1ccccc1F)C1CCN(CCCCCNC(=O)/C=C/c2ccc(Cl)c(Cl)c2)CC1,8.7%
10,C=C(C)COc1ccc(-c2n[nH]c(C(F)(F)F)c2-c2ccccc2OC)c(O)c1,10.4%
11,COc1ccc(CCn2c(=N)c(C(=O)NCc3cccnc3)cc3c(=O)n4cccc(C)c4nc32)cc1,1.74%
12,O=C(NCCCN1CCC(NC(=O)c2ccc(-c3cccnc3)cc2)CC1)c1ccc(Cl)c(Cl)c1,1.43%
13,O=C(Nc1ccc([N+](=O)[O-])cc1)Nc1nc2ccc(Cl)cc2s1,15.7%
14,CCOc1cc(C(=O)NCCCN2CCN(c3cccc(Cl)c3)CC2)ccc1-c1nc2cc(Cl)c(F)cc2[nH]1,2.17%
15,CCCN(C(=O)c1ccccc1C)c1nnc(-c2cccc(C)c2)s1,4.39%
16,O=C(NCC1CCN(Cc2ccc3c(c2)OCCO3)C1)c1cc(-c2ccccc2F)cs1 (configuration not stated),6.12%
17,CCc1ccc(-n2c(=O)c3cccnc3n2CC(=O)NC2CCCC2)cc1,2.78%
18,COc1nc2c(CCN3CC[C@@H](NCc4cc(C#N)c5c(c4)CCO5)[C@@H](O)C3)ccnc2cc1F,4.85%
19,COc1ccc(NC(=O)Nc2ccc(-c3ccccc3)cc2Cl)cc1N1CCN(C)CC1,9.92%
